Data taken from patent US7517874B2 (priority 2007, dated 2009).
Where two headings read alike, the source gives them in different places.

Target: human CB2 receptor (hCB2) (Homo sapiens, UniProt P34972)
Assay: cell-based
Format: cell-based
Conditions: for +/− HCB2: agonist or inverse agonist at hCB2
[1] = groups >100 nM-10 μM and >10 μM, cAMP, CHO-K1 hCB2, read-out: EC50 HCB2

human CB2 receptor (hCB2), sequence (P34972 whole entry): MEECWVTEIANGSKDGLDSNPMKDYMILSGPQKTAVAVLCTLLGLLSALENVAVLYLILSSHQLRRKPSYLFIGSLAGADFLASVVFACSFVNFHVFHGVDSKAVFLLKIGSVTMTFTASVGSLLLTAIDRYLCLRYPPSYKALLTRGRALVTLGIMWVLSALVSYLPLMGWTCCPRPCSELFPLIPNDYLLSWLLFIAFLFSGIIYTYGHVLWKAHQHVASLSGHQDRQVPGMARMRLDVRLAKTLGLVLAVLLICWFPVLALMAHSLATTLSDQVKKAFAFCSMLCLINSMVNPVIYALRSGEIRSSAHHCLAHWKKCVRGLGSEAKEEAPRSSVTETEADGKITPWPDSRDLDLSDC

SMILES | +/− HCB2 | also measured
CNC(=O)[C@@H](NC(=O)c1nc(/C=C/CN(C)C)n2c1CN(C)CCC2)C(C)(C)C [Compound 513, (S,E)-N-(3,3-dimethyl-1-(methylamino)-1-oxobutan-2-yl)-3-(3-(dimethylamino)prop-1-enyl)-8-methyl-6,7,8,9-tetrahydro-5H-imidazo[1,5-a][1,4]diazepine-1-carboxamide] | + | 
CC(C)NC(=O)N1CCn2c(-c3ccccc3)nc(C(=O)NC3C4(C)CCC(C4)C3(C)C)c2C1 (stereo not drawn) [Compound 171, N7-isopropyl-3-phenyl-N1-(1,3,3-trimethylbicyclo[2.2.1]heptan-2-yl)-5,6-dihydroimidazo[1,5-a]pyrazine-1,7(8H)-dicarboxamide] | + | 
CNC(=O)[C@@H](NC(=O)c1nc(C2CC2)n2c1CN(C)CC2)C(C)(C)C [Compound 269, (S)-3-cyclopropyl-N-(3,3-dimethyl-1-(methylamino)-1-oxobutan-2-yl)-7-methyl-5,6,7,8-tetrahydroimidazo[1,5-a]pyrazine-1-carboxamide] | + | 
CNC(=O)[C@@H](NC(=O)c1nc(-c2ccccc2)n2c1C[N+](C)(C)CCC2)C(C)(C)C [Compound 481, (S)-1-(3,3-dimethyl-1-(methylamino)-1-oxobutan-2-ylcarbamoyl)-8,8-dimethyl-3-phenyl-6,7,8,9-tetrahydro-5H-imidazo[1,5-a][1,4]diazepin-8-ium] |  | EC50: > 10000 nM
CNC(=O)[C@@H](NC(=O)c1nc(/C=C/CN2CCOCC2)n2c1CN(C)CC2)C(C)(C)C [Compound 286, (S,E)-N-(3,3-dimethyl-1-(methylamino)-1-oxobutan-2-yl)-7-methyl-3-(3-morpholinoprop-1-enyl)-5,6,7,8-tetrahydroimidazo[1,5-a]pyrazine-1-carboxamide] | + | 
CN1CCn2c(-c3ccccc3)nc(C(=O)N[C@H](C(N)=O)C(C)(C)C)c2C1 [Compound 285, (S)-N-(1-amino-3,3-dimethyl-1-oxobutan-2-yl)-7-methyl-3-phenyl-5,6,7,8-tetrahydroimidazo[1,5-a]pyrazine-1-carboxamide] | + | 
CN1CCn2c(-c3ccccc3)nc(C(=O)NCC3OCCO3)c2C1 [Compound 234, N-((1,3-dioxolan-2-yl)methyl)-7-methyl-3-phenyl-5,6,7,8-tetrahydroimidazo[1,5-a]pyrazine-1-carboxamide] |  | EC50: > 10000 nM
CNC(=O)[C@@H](NC(=O)c1nc(-c2cc(F)cc(F)c2)n2c1CN(C)CCC2)C(C)(C)C [Compound 331, (S)-3-(3,5-difluorophenyl)-N-(3,3-dimethyl-1-(methylamino)-1-oxobutan-2-yl)-8-methyl-6,7,8,9-tetrahydro-5H-imidazo[1,5-a][1,4]diazepine-1-carboxamide] | + | 
CNC(=O)[C@@H](NC(=O)c1nc(-c2ccccc2)n2c1CN(Cc1ccccc1)CC2)C(C)(C)C [Compound 61, (S)-7-benzyl-N-(3,3-dimethyl-1-(methylamino)-1-oxobutan-2-yl)-3-phenyl-5,6,7,8-tetrahydroimidazo[1,5-a]pyrazine-1-carboxamide] |  | EC50: > 10000 nM
CNC(=O)[C@@H](NC(=O)c1nc(-c2ccncc2F)n2c1CN(C)CCC2)C(C)(C)C [Compound 451, (S)-N-(3,3-dimethyl-1-(methylamino)-1-oxobutan-2-yl)-3-(3-fluoropyridin-4-yl)-8-methyl-6,7,8,9-tetrahydro-5H-imidazo[1,5-a][1,4]diazepine-1-carboxamide] | + | 
CNC(=O)c1ccccc1NC(=O)c1nc(-c2ccc(Cl)cc2F)n2c1CN(C)CC2 [Compound 217] |  | EC50 [1]: > 10000 nM
CCCc1nc(C(=O)N[C@H](C(=O)NC)C(C)(C)C)c2n1CCCN(C)C2 [Compound 485, (S)-N-(3,3-dimethyl-1-(methylamino)-1-oxobutan-2-yl)-8-methyl-3-propyl-6,7,8,9-tetrahydro-5H-imidazo[1,5-a][1,4]diazepine-1-carboxamide] | + | 
CNC(=O)[C@@H](NC(=O)c1nc(/C=C/c2ccsc2)n2c1CN(C)CCC2)C(C)(C)C [Compound 446] | + | 
CNC(=O)[C@@H](NC(=O)c1nc(-c2ccccc2C#N)n2c1CN(C)CC2)C(C)(C)C [Compound 259, (S)-3-(2-cyanophenyl)-N-(3,3-dimethyl-1-(methylamino)-1-oxobutan-2-yl)-7-methyl-5,6,7,8-tetrahydroimidazo[1,5-a]pyrazine-1-carboxamide] |  | EC50: > 10000 nM
CNC(=O)[C@@H](NC(=O)c1nc(Cl)n2c1CNCCC2)C(C)(C)C [Compound 597, (S)-3-chloro-N-(3,3-dimethyl-1-(methylamino)-1-oxobutan-2-yl)-6,7,8,9-tetrahydro-5H-imidazo[1,5-a][1,4]diazepine-1-carboxamide] |  | EC50: > 10000 nM
CN1CCCn2c(-c3ccc(F)c(F)c3)nc(C(=O)N[C@H](C(=O)N(C)C)C(C)(C)C)c2C1 [Compound 561, (S)-3-(3,4-difluorophenyl)-N-(1-(dimethylamino)-3,3-dimethyl-1-oxobutan-2-yl)-8-methyl-6,7,8,9-tetrahydro-5H-imidazo[1,5-a][1,4]diazepine-1-carboxamide] | + | 
CN1CCn2c(-c3ccc(Cl)cc3F)nc(C(=O)N3CCC(n4c(=O)[nH]c5cc(Cl)ccc54)CC3)c2C1 [Compound 212, 5-chloro-1-(1-(3-(4-chloro-2-fluorophenyl)-7-methyl-5,6,7,8-tetrahydroimidazo[1,5-a]pyrazine-1-carbonyl)piperidin-4-yl)-1H-benzo[d]imidazol-2(3H)-one] |  | EC50 [1]: > 10000 nM
CNC(=O)[C@H](CC(C)(C)C)NC(=O)c1nc(-c2ccc(F)c(F)c2)n2c1CN(C)CCC2 [Compound 552, (S)-3-(3,4-diflurophenyl)-N-(4,4-dimethyl-1-(methylamino)-1-oxopentan-2-yl)-8-methyl-6,7,8,9-tetrahydro-5H-imidazo[1,5-a][1,4]diazepine-1-carboxamide] | + | 
CNC(=O)[C@@H](NC(=O)c1nc(-c2cc(F)cc(C(N)=O)c2)n2c1CN(C)CCC2)C(C)(C)C [Compound 416, (S)-3-(3-carbamoyl-5-fluorophenyl)-N-(3,3-dimethyl-1-(methylamino)-1-oxobutan-2-yl)-8-methyl-6,7,8,9-tetrahydro-5H-imidazo[1,5-a][1,4]diazepine-1-carboxamide] | + | 
CNC(=O)[C@@H](NC(=O)c1nc(C2=CCC(C(C)(C)C)CC2)n2c1CN(C)CC2)C(C)(C)C (stereo partly drawn) [Compound 271, 3-(4-tert-butylcyclohex-1-enyl)-N-((S)-3,3-dimethyl-1-(methylamino)-1-oxobutan-2-yl)-7-methyl-5,6,7,8-tetrahydroimidazo[1,5-a]pyrazine-1-carboxamide] | + | 
CN1CCCn2c(-c3ccccc3)nc(C(=O)N[C@H](C(=O)NC3CC3)C(C)(C)C)c2C1 [Compound 477, (S)-N-(1-(cyclopropylamino)-3,3-dimethyl-1-oxobutan-2-yl)-8-methyl-3-phenyl-6,7,8,9-tetrahydro-5H-imidazo[1,5-a][1,4]diazepine-1-carboxamide] | + | 
CNC(=O)[C@@H](NC(=O)c1nc(-c2ccccc2)n2c1CN(C(=O)C(C)(C)C)CC2)C(C)(C)C [Compound 190, (S)-N-(3,3-dimethyl-1-(methylamino)-1-oxobutan-2-yl)-3-phenyl-7-pivaloyl-5,6,7,8-tetrahydroimidazo[1,5-a]pyrazine-1-carboxamide] | − | 
CNC(=O)[C@@H](NC(=O)c1nc(CCCC2CCCC2)n2c1CN(C)CCC2)C(C)(C)C [Compound 494, (S)-3-(3-cyclopentylpropyl)-N-(3,3-dimethyl-1-(methylamino)-1-oxobutan-2-yl)-8-methyl-6,7,8,9-tetrahydro-5H-imidazo[1,5-a][1,4]diazepine-1-carboxamide] | + | 
CC(C)CN1CCn2c(-c3ccccc3)nc(C(=O)NC3C4(C)CCC(C4)C3(C)C)c2C1 (stereo not drawn) [Compound 142, 7-isobutyl-3-phenyl-N-(1,3,3-trimethylbicyclo[2.2.1]heptan-2-yl)-5,6,7,8-tetrahydroimidazo[1,5-a]pyrazine-1-carboxamide] | + | 
CNC(=O)[C@@H](NC(=O)c1nc(-c2ccc(OC(F)(F)F)cc2)n2c1CN(C)CCC2)C(C)(C)C [Compound 339, (S)-N-(3,3-dimethyl-1-(methylamino)-1-oxobutan-2-yl)-8-methyl-3-(4-(trifluoromethoxy)phenyl)-6,7,8,9-tetrahydro-5H-imidazo[1,5-a][1,4]diazepine-1-carboxamide] | + | 
CC(=O)N1CCn2c(-c3ccccc3)nc(C(=O)NC3CCCCC3)c2C1 [Compound 177, 7-acetyl-N-cyclohexyl-3-phenyl-5,6,7,8-tetrahydroimidazo[1,5-a]pyrazine-1-carboxamide] | + | 
CNC(=O)[C@@H](NC(=O)c1nc(-c2ccc(C(N)=O)c(F)c2)n2c1CN(C)CCC2)C(C)(C)C [Compound 427, (S)-3-(4-carbamoyl-3-fluorophenyl)-N-(3,3-dimethyl-1-(methylamino)-1-oxobutan-2-yl)-8-methyl-6,7,8,9-tetrahydro-5H-imidazo[1,5-a][1,4]diazepine-1-carboxamide] |  | EC50: > 10000 nM
CCc1nc(C(=O)N[C@H](C(=O)NC)C(C)(C)C)c2n1CCN(C)C2 [Compound 310, (S)-N-(3,3-dimethyl-1-(methylamino)-1-oxobutan-2-yl)-3-ethyl-7-methyl-5,6,7,8-tetrahydroimidazo[1,5-a]pyrazine-1-carboxamide] | − | 
CCC/C=C/c1nc(C(=O)N[C@H](C(=O)NC)C(C)(C)C)c2n1CCN(C)C2 [Compound 268, (S,E)-N-(3,3-dimethyl-1-(methylamino)-1-oxobutan-2-yl)-7-methyl-3-(pent-1-enyl)-5,6,7,8-tetrahydroimidazo[1,5-a]pyrazine-1-carboxamide] | + | 
CNC(=O)[C@H](CC(C)(C)C)NC(=O)c1nc(-c2cc(Cl)ccc2F)n2c1CN(C)CCC2 [Compound 545, (S)-3-(5-chloro-2-fluorophenyl)-N-(4,4-dimethyl-1-(methylamino)-1-oxopentan-2-yl)-8-methyl-6,7,8,9-tetrahydro-5H-imidazo[1,5-a][1,4]diazepine-1-carboxamide] | + | 
